Reference: PubChem BioAssay AID1671194 (National Center for Advancing Translational Sciences (NCATS), 2021)
In all, about 140,000 compounds went through this assay and about 240 (0.17%) were called active. This list was built around the results that the source calls inconclusive (neither active nor inactive); the mix of calls is not that of the screen. Calls follow the shape of the dose curve; as a rule, active = well fitted inhibition curve with a large enough effect; inconclusive = small, poorly fitted or top-dose-only effect; inactive = no such curve, though single readings can be large or run the other way. A potency beside an inconclusive call is a rough fit, not a confirmed value.

Assay: Primary qHTS assay for inhibitors of alpha-synuclein gene (SNCA) expression; also: nearly all actives have a fitted effect of over 45% in size
Details: HEK-293 SNCA-luciferase knock-in, luminescence, 24 h; activity change, negative = inhibition: at 57.2 µM (top of the series) unless noted
Source text: Assay Submitter (PI): Daniel R. Scoles Ph.D.
Department of Neurology, University of Utah, Salt Lake City, Utah
Accumulation of alpha-synuclein is a main underlying pathological feature of Parkinson's disease (PD) and alpha-synucleinopathies, for which lowering expression of the alpha-synuclein gene (SNCA) is a potential therapeutic avenue. Using a cell-based luciferase reporter of SNCA expression we performed a quantitative high throughput screen (qHTS) of 155,885 compounds in dose response. The screening assay was generated using genome editing to insert the luciferase gene downstream and in frame of the SNCA gene in HEK-293 cells (1). A viability counterscreen using GF-AFC was used to eliminate cytotoxic and false positive compounds. After in silico analysis (clustering, removal of frequent hitter nuisance chemotypes), inhibitor compounds from the primary screen were selected for follow up and re-tested at 11-doses in the SNCA-luc cells (luciferase and GF-AFC confirmation), and in CMV-luc expressing cell line to flag general transcriptional repressors.
Described herein are the results of the primary screen for SNCA inhibitors; decrease in luciferase signal (inhibition of the SNCA gene expression) is the desired output for this assay.
1. Dansithong, W., Paul, S., Scoles, D. R., Pulst, S. M., and Huynh, D. P. (2015) Generation of SNCA Cell Models Using Zinc Finger Nuclease (ZFN) Technology for Efficient High-Throughput Drug Screening. PLoS ONE 10, e0136930.
SEQUENCE No. (e.g., 1, 2, 3, etc.); […] (e.g., Cells, Incubation, Reagent, etc.); VALUE; DESCRIPTION
1; Cells; 4 uL; Dispense 1500 HEK-293-SNCA-luc cells/well into Greiner 1536-well white / solid bottom tissue culture treated plate. The plate was covered with metal lids with gas-exchange holes.
2; Incubate; 24 hours; Incubate at 37C, 5% CO2, 95% RH.
3; Compounds; 23 nL; Compounds and controls were transferred via a Kalypsys Pin Tool (Wako USA) equipped with a 1536-slotted pin array. The plate was covered with metal lids with gas-exchange holes.
4; Incubate; 24 hours; Incubate at 37C, 5% CO2, 95% RH.
5; Dispense; 1 uL; Dispense Gly-Phe-7-amino-4-trifluoromethylcoumarin (GF-AFC, prepared at 125 uM in PBS) was added. The plate was covered with metal lids with gas-exchange holes.
6; Incubate; 30 min; Incubate at 37C, 5% CO2.
7; Detector; Fluorescence; Measure fluorescence with ViewLux microplate reader (PerkinElmer) equipped with 405/10 excitation and 540/25 emission filters.
8; Dispense; 3 uL; Dispense ONE-Glo ([…]) lucifase detection reagent was added to each well. Plates were covered with metal lids with gas-exchange holes.
9; Incubate; 15 min; Incubate at room temperature.
10; Detector; Luminescence; Measure luminescence with ViewLux microplate reader (PerkinElmer) equipped with clear filters.
NOTES (numbers refer to sequence above)
1; HEK-293-SNCA-luc were cultured and suspended in phenol-red free DMEM (4.5 g/L glucose, 25 mM HEPES, cat #21063 (Thermo)).
3; Compounds were added to the assay plate in an 11-point intra plate dose response, 1:3 titration in DMSO with a final concentration range of […]. Vehicle-only plates, with DMSO being pin-transferred to every well, were inserted at the beginning of screening runs to confirm expected assay performance. Activity was normalized to wells containing medium only (-100% activity, full inhibition) and SNCA-luc cells treated with DMSO vehicle control (0% activity), contained on the same plate as test samples.
10; Signals were analyzed, and dose-response curves were fit using the Hill equation. Compounds in curve classes -1.1, -1.2, -2.1, -2.2 in the SNCA-luc assay were considered active. Compounds were eliminated from further consideration if also active (curve class -1.1, -1.2, -1.3, -1.4, -2.1, -2.2, -2.3, -2.4) in the GF-AFC cytotoxicity assay.
Potency is read from the fitted curve at half-maximal effect; tags tell the direction and shape of the fitted curve.

Potency, inconclusive:
Cc1nn2c(c1-c1ccccc1C(C)C)N(Cc1ccc3c(c1)CCO3)CCC2 35.5 µM [inhibitor, single point]
CC(C)C(=O)N1CCC2(CC1)CC(N(Cc1ccccc1)C1CC1)CCO2 (stereo not drawn) 17.8 µM [inhibitor, single point]
CCc1ccc(S(=O)(=O)c2nnn3c2nc(NCCc2ccccc2)c2sccc23)cc1 28.2 µM [inhibitor, partial curve, poor fit]
Cc1nc2c(cnn2-c2ccccc2Cl)c(=O)n1-c1ccc(C(C)C)cc1 39.8 µM [inhibitor, single point]
COc1ccccc1Oc1nc2c(c(=O)n(C)c(=O)n2C)n1Cc1cccc(Br)c1 17.8 µM [inhibitor, partial curve]
O=C(CC1(O)C(=O)N(CCc2ccccc2)c2ccc(Br)cc21)c1ccccc1 (stereo not drawn) 39.8 µM [inhibitor, single point]
COCCOC1CCOC2(CCN(C(=O)CCc3nc4ccccc4s3)CC2)C1 (stereo not drawn) 39.8 µM [inhibitor, single point]
COc1ccnc(-c2nnc3ccc(N(C)c4ccccc4)nn23)c1 31.6 µM [inhibitor, partial curve, poor fit]
O=C(Nc1ccc(F)cc1)[C@@H]1C[C@@H](c2ccc(F)cc2)N([S+](=O)([O-])c2ccccc2)C1 6.31 µM [inhibitor, full curve, poor fit]
COc1ccc(C(=O)NCc2nnc3cc(-c4nc(C)no4)ccn23)cc1F 3.55 µM [inhibitor, partial curve, poor fit]
CN1C(=O)C2(CCN(Cc3cccc4ccccc34)C2)c2ccccc21 (stereo not drawn) 63.1 µM [inhibitor, partial curve, poor fit]
CCOC1CCOC2(CCN(C(=O)c3cccn3C)CC2)C1 (stereo not drawn) 39.8 µM [inhibitor, single point]
Cn1ncc2c(C(=O)NCc3cccs3)cc(-c3ccccc3)nc21 14.1 µM [inhibitor, partial curve]

Activity change, negative = inhibition, inactive:
Cc1nc2c(c(N3CCCC(COc4cccc(F)c4)C3)n1)CCNCC2 (stereo not drawn) -12.9%
COc1ccc(-c2cc(C(F)(F)F)n3nc(C(=O)OC(C)C)cc3n2)cc1 -3.46%
Cc1ccc(S(=O)(=O)N[C@H]2CC(C)(C)[C@@H]3C[C@@](C)(O)CC[C@]23CCC(=O)NCCc2c[nH]c3ccccc23)cc1 -11.1%
O=S(=O)(c1cccs1)N1CCCCC1c1nc(CCOCC2CC2)no1 (stereo not drawn) 1.67%
CC(=O)N1CCC(Cc2noc(-c3ccncc3)n2)C1 (stereo not drawn) -19.6%
